From PubChem BioAssay AID1434 (Sanford-Burnham Center for Chemical Genomics, 2008)
This is one part of the list. The main result of the screen is listed elsewhere. These columns were measured beside it and carry no call. Compounds called inactive in the main read-out are mostly missing here.

molecular target: Runt-related transcription factor 1 (Homo sapiens) + Core-binding factor subunit beta (Homo sapiens) (UniProt Q01196+Q13951); test: disruptors of Runt domain/CBFb-SMMHC interaction – biochemical, FRET, Cerulean-Runt, Venus-CBFb-SMMHC, uHTS, primary screen (AID 1434); conditions: Cerulean-Runt/Venus-CBFb-SMMHC FRET ratio 530/480, 1 h; retest duplicate average; at 20 µM; stronger effect = higher value;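 also: 0% = DMSO wells and 100% = wells with excess untagged CBFb-SMMHC; inhibitors lower the FRET ratio by blocking Runt binding to CBFb-SMMHC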
UniProt Q01196, sequence (Q01196 whole entry, looked up, the tested form may be a part): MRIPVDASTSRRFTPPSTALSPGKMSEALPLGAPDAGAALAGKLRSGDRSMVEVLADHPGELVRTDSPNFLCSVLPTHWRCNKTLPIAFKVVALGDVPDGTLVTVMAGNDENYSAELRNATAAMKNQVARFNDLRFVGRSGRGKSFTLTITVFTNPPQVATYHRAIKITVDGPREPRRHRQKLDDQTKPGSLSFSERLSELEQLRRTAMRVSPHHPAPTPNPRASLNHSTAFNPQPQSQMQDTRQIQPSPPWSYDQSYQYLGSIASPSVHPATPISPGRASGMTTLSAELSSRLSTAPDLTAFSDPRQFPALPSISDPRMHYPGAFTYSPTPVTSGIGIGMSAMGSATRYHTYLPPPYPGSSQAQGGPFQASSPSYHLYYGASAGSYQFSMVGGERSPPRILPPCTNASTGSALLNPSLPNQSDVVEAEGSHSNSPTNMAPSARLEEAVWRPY
UniProt Q01196, sequence (Q13951 whole entry, looked up, the tested form may be a part): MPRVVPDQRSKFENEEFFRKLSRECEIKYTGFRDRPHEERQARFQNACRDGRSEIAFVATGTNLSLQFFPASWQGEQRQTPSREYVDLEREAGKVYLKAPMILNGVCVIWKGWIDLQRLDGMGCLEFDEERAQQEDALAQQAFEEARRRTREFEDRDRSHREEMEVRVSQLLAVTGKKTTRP

SMILES	inhibition [%]
Nc1ccc(-c2nc3ccc(C(=O)O)cc3s2)cc1	85.6
COc1ccc(C2C3=C(CC(C)(C)CC3=O)Nc3c2c(=O)[nH]c(=O)n3Cc2ccccc2)cc1OC (stereo unspecified)	72.6
O=S(=O)(Nc1ccc(-c2nc3cccnc3s2)cc1)c1cc(F)ccc1F	93.5
Cc1cccc(C(=O)N=c2c(C#N)cc3c(=O)n4cccc(C)c4nc3n2Cc2ccco2)c1	72.9
O=C(Cc1cc(=O)oc2cc(O)ccc12)NCC1CCC(C(=O)O)CC1 (stereo unspecified)	120
CCOC(=O)c1c(/N=C/N(C)C)sc(/C=N/Nc2ccccc2)c1-c1ccc(Cl)cc1	159
Cc1ccc(S(=O)(=O)c2cc3c(=O)n4ccccc4nc3n(C)c2=N)cc1	71.5
O=c1oc2c3c4c(cc2c2c1CCC2)OCCN4CCC3	141
CN1/C(=C/C(=O)c2cccs2)Sc2ccccc21	106
C=CCNc1nc(N2CCOCC2)c(C#N)c2c1CN(C)CC2	50.6
COc1ccc(CNC(=O)c2c(N)n(CCCN3CCOCC3)c3nc4ccccc4nc23)cc1	116
CCOC(=O)c1cc2c(=O)n3ccccc3nc2n(Cc2ccco2)c1=NC(=O)c1ccccc1OCC	70.6
Cc1cccn2c(=O)c(/C=C(\C#N)C(=O)NCc3ccco3)c(N3CCCC(C)C3)nc12 (stereo unspecified)	173
CCN(CC)c1ccc2cc(-c3nc4ccccc4n3C)c(=O)oc2c1	72.9
N#Cc1cc2cc3c(cc2nc1N1CCOCC1)OCO3	164
CCOC(=O)c1sc(Nc2nc3c(OC)cccc3s2)cc1C	111
Oc1ccc(-c2csc(-c3ccccc3)n2)cc1O	59.1
CN1Cc2sc(N)c(C#N)c2CC1(C)C	74
CCN(CC)c1nc2ccccc2nc1C(C#N)C(=O)NCCCOC (stereo unspecified)	74.9
CCOC(=O)c1cc2c(=O)n3ccccc3nc2n(CCCOC)c1=NC(=O)c1ccncc1	70.6
CCCCCNc1nc(NCCCO)c(C#N)c2c1CN(C)CC2	72.9
CC(=O)Nc1ccc2c3c(cccc13)C(=O)N(c1ccccc1)C2=O	70.6

SMILES	inhibition [%]
c1ccc2c(NCCCN3CCOCC3)c3ccccc3nc2c1	134
CCN(CC)c1ccc(/C=N/NC(=O)c2cccc(S(=O)(=O)N3CCOCC3)c2)c(O)c1	70.6
O=C(NCc1ccco1)c1cnn2c(C(F)(F)F)cc(-c3cccs3)nc12	56.4
Cc1ccc(N2C(=O)C(Cl)=C(N3CCOCC3)C2=O)cc1Cl	50.5
Cc1ccc(C)c(-n2c3nc(=O)n(C)c(=O)c-3cc3ccccc32)c1	70.6
Cc1ccc2nc(N3CCN(C=O)CC3)nc(-c3ccccc3)c2c1	71.5
N#Cc1c(-c2ccccc2)c(C#N)c2nc3ccccc3n2c1N	112
COc1ccc2o/c(=N\O)c(C(=O)Nc3ccccc3OC)cc2c1	80.8
COc1ccc(S(=O)(=O)N(C(C)=O)c2ccc3oc(=O)sc3c2)cc1	52.2
Cc1oc(/N=C/c2ccc(O)cc2O)c(C#N)c1C	131
CCn1nc(NC(=O)c2ccccn2)c2cc3cc(C)ccc3nc21	85.1
Cc1cc(C(=O)O)ccc1-c1ccc(/C=C2\NC(=O)N(Cc3ccccc3Cl)C2=O)o1	75
CN1CCc2c(sc3c2C(=O)NC(c2ccc4c(c2)OCO4)N3)C1 (stereo unspecified)	171
COc1cc(C2C3=C(CC(C)(C)CC3=O)Nc3c2c(=O)[nH]c(=O)n3Cc2ccccc2)ccc1O (stereo unspecified)	134
Cc1ccccc1N=Cc1cc2c(cc1O)OC(N)=C(C#N)C2c1ccccc1 (stereo unspecified)	107
Oc1ccc2ccccc2c1/C=N/n1cnnc1	117
COc1ccccc1-n1c(SCc2cc(=O)oc3cc(O)ccc23)nc2ccccc2c1=O	52.7
CCCc1cc(NCC2CCCO2)n2c(nc3ccccc32)c1C#N (stereo unspecified)	72.7
CCCCN1C=C(C(=O)OC)C(c2ccccc2C(F)(F)F)C(C(=O)OC)=C1	137
C=CCNC(=O)/C(C#N)=C/c1c(N(Cc2ccccc2)Cc2ccccc2)nc2ccccn2c1=O	73.4
CCCn1nc(NC(=O)c2cccs2)c2cc3ccccc3nc21	52.1
O=c1cc(CSc2nc3ccccc3c(=O)[nH]2)c2ccc(O)cc2o1	55.3

SMILES	inhibition [%]
CCN(CC)c1ccc(C(=O)OCc2cc(=O)oc3cc(O)ccc23)cc1	91.6
CC(=O)N=c1c(C#N)cc2c(=O)n3cccc(C)c3nc2n1CCCOC(C)C	70.6
CCCCCCc1cc2cc(S(=O)(=O)c3ccc(F)c(Cl)c3)c(=O)oc2cc1O	71.5
Nc1cccc2c1C(=O)N(C(=O)/C=C/c1ccc(F)cc1)C2=O	70.6
CC(OC(=O)c1cc2c(ccc3ccccc32)oc1=O)c1nc2ccccc2s1 (stereo unspecified)	84.7
CC(C)N1CCc2c(sc(NC(=S)NC(=O)c3ccccc3)c2C#N)C1	71.5
CC(=O)Nc1ccc(S(=O)(=O)Nc2nc3ccccc3nc2Sc2nncn2C)cc1	102
Cc1cc(N2CCN(C3CCCC3)CC2)n2c(nc3ccccc32)c1C#N	51.1
CCOC(=O)c1cc2c(=O)n3ccccc3nc2n(C(C)C)c1=NC(=O)c1c(-c2c(F)cccc2Cl)noc1C	111
N#CC1=C(N)N2C(=C(C#N)C1c1ccc(Br)cc1)Nc1ccccc12 (stereo unspecified)	71.5
CCCc1cc(-n2ccnc2)n2c(nc3ccccc32)c1C#N	104
Nc1c(C(=O)OCC2CCCO2)c2nc3ccccc3nc2n1C1CCCC1 (stereo unspecified)	117
CN1C=CC2=C(C#N)C(N)C(C#N)(C#N)[C@H](c3ccccc3)[C@H]2C1 (stereo partly specified)	71.5
CN1CCN(c2nc(-c3ccccc3)c3cc(Cl)ccc3n2)CC1	90.3
Cc1ccc(/C=C2\Oc3c(ccc(O)c3CN3CCN(C)CC3)C2=O)cc1	70.6
COc1cc(/C=C2\SC(c3ccccc3)=NC2=O)cc(Cl)c1O	60.5
Cc1cccc(C)c1NC(=O)C1=C(O)c2sccc2N(C)S1(=O)=O	71.2
Nc1c(C(=O)NCCN2CCOCC2)c2nc3ccccc3nc2n1CCc1ccccc1F	93.3
CCN(CC)c1ccc(/C=N/NC(=O)c2cccc(S(=O)(=O)Nc3ccccc3OC)c2)c(O)c1	70.5
CC(=O)NNc1cc(N2CCOCC2)nc(N2CCOCC2)n1	71.4
CCN(C)c1ccc(/C=N\n2nnnc2N)cc1	90.7
CCOCCCn1c(=N)c(C(=O)NCc2ccc3c(c2)OCO3)cc2c(=O)n3cccc(C)c3nc21	120
